From PubChem BioAssay AID485344 (National Center for Advancing Translational Sciences (NCATS), 2010)
In all, about 340,000 compounds went through this assay and about 6,900 (2%) were called active. Rule as the data show it: active = inhibition above about 30%; inactive = below that, where a call was filed. The list shows a part of the results, in another mix than the full data. The source gives no active or inactive call for entries shown without one.

biological target: D(2) dopamine receptor (Homo sapiens) (UniProt P14416); test: HTS Assay for Allosteric Antagonists of the Human D2 Dopamine Receptor: Primary Screen for Antagonists; conditions: HEK293 TREx D2 cells, calcium flux, dopamine EC80; at 10 µM; stronger effect = higher value; also: 0% is about no effect
Sequence of UniProt P14416 (P14416 whole entry, looked up): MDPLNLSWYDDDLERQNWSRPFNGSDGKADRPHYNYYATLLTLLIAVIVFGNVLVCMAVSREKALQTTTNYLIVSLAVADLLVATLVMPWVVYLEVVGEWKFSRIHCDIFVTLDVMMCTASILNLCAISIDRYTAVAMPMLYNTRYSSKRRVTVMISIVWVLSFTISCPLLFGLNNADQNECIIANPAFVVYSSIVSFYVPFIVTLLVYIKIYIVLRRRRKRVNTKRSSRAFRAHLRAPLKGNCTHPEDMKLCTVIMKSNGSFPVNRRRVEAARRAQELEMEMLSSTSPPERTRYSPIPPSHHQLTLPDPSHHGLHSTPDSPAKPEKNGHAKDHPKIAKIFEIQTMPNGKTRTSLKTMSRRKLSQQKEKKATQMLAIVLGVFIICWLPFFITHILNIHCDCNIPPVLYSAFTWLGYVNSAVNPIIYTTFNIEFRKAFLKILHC
Procedure, shortened: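 Dopamine at EC80 is the agonist stimulus; test compounds precede it by 180 s. Calcium flux read kinetically in a force-coupled, inducible HEK293 T-REx D2 cell line.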

SMILES | inhibition
COc1ccc(NC(=O)Nc2nnc(C)s2)cc1 | -6.46%
CC1=C(c2ccc(C)c(C)c2)S(=O)(=O)N=C1N1CCC(C(=O)N2CCC(C(N)=O)CC2)CC1 | -4.88%
O=C1COc2cc(S(=O)(=O)NCc3ccco3)c(Cl)cc2N1 | -6.47%
O=C(CCC(=O)N1CCOc2ccc(Cl)cc21)NCCCN1CCN(c2ccccc2F)CC1 | active: 85.8%
COc1ccc(C2c3c(n(C)c4ccccc34)C(=O)N2CC(=O)Nc2ccc(C)c(Cl)c2)cc1 (centres undefined) | 11.3%
CC(CCc1ccccc1)NCc1cccc2ccccc12 (centres undefined) | active: 32.4%
CCc1ccccc1N(C(=O)c1snc(C(N)=O)c1N)C(C(=O)NCC1CCCO1)c1ccc(C)o1 (centres undefined) | active: 32.6%
Cc1ccc(-c2nc(SCCOc3ccccc3C)n3[nH]c(=O)cc3n2)cc1 | -17.9%
Cc1ccc(NC(=O)Cn2cc(S(=O)(=O)c3ccc(C)cc3)c(=O)c3cc4c(cc32)OCO4)cc1 | 16.1%
CC(C)OCCCNC(=O)c1ccc2c(c1)NC(=O)c1ccccc1S2 | -8.56%
COC(=O)c1ccccc1NC(=O)CSc1nc2ccccc2nc1Cc1ccccc1OC | -27.6%
Cc1ccc(CSc2cn(CC(=O)N3CCCC3)c3ccccc23)cc1 | -1.84%
CCn1c(=O)sc2cc(NS(=O)(=O)c3ccc(F)c(C)c3)ccc21 | -7.72%
O=C(CCS(=O)(=O)c1cc(Br)cc2c1N(C(=O)C1CC1)CC2)NCc1ccc(Cl)cc1 | 17.7%
O=C(Nc1cc(-c2nc3ccccc3o2)ccc1Cl)c1ccc(N2CCCCC2)c([N+](=O)[O-])c1 | 11.2%
O=S(=O)(Nc1nc2n(n1)C(c1ccc(F)cc1)C=C(c1ccccc1)N2)c1ccccc1 (centres undefined) | -5.18%
Cc1ccc2ncc(C(=O)Nc3ccc(F)cc3F)c(=O)n2c1 | 12.3%
CC(=O)c1ccc(N2CCN(c3ccc(NC(=O)c4ccc(F)cc4)cc3C(=O)O)CC2)cc1 | -11.1%
Cc1cc(C)c2c(=O)cc(C(=O)Nc3ccccc3C(F)(F)F)oc2c1 | -2.34%
CCc1ccc(CNC(=O)c2ccc(NC(=O)N3CC(C)Sc4ccccc43)cc2)cc1 (centres undefined) | 22.5%

SMILES | inhibition
Cc1cccc(CSc2nnc([C@@H]3CCCN3C(=O)OC(C)(C)C)o2)c1 | active: 35.6%
CC(C)(C)c1ccc(C(=O)NCC(c2cccs2)S(=O)(=O)c2ccccc2)cc1 (centres undefined) | 2.14%
Cc1cc(NC(=O)CCS(=O)(=O)c2cc3c4c(c2)CCN4C(=O)CC3)ccc1Br | 8.41%
COc1ccc(NC(=O)C(C)n2nc(-c3ccc(C)c(C)c3)ccc2=O)cc1OC (centres undefined) | 5.56%
CCOC(=O)c1c(C)[nH]c(C)c1S(=O)(=O)N1CCC(C(=O)N2CCN(c3ccccc3F)CC2)CC1 | -8.67%
COc1cccc(NC(=O)CSC2=Nc3ccccc3C3=NC(CC(=O)NC4CCCCC4)C(=O)N23)c1 (centres undefined) | -13.8%
Cc1ccc(-n2c(SCc3cccc(F)c3)nc3[nH]ncc3c2=O)cc1C | -25%
COc1ccc(C2CC(=O)c3cc(-c4nc(-c5ccc(Cl)cc5)c(C)s4)c(=O)[nH]c3C2)cc1 (centres undefined) | 4.69%
COc1cc(OC)c(OC)cc1/C=C/c1nc2cc3ccccc3cc2c(=O)n1-c1ccc(F)cc1F | -28.2%
Cc1ccc2c(c1)-c1cc(C)nn1C(c1cc(Br)ccc1O)N2 (centres undefined) | 12.2%
O=C(Cc1ccccc1)N(Cc1cccnc1)c1nc2c(F)cc(F)cc2s1 | 10.2%
COc1ccc(-c2cc(C)no2)cc1S(=O)(=O)N1CCOc2ccccc21 | -2.8%
Cc1cccc(N2CCN(C(=O)CCc3nnc4n(CC(C)C)c(=O)c5ccccc5n34)CC2)c1C | -10.9%
COc1ccc(-c2cn3c(n2)sc2cc(C(=O)Nc4ccc(C)c(C)c4)ccc23)cc1 | -9.43%
CCOC(=O)c1c(C)oc2ccc(N(C(=O)Oc3ccccc3)S(=O)(=O)c3ccc(CC)cc3)cc12 | 11.4%
CCc1ccccc1NC(=O)CN(Cc1ccccc1)S(=O)(=O)c1ccc(Br)cc1 | 8.89%
Cc1cccc(OC(=O)CSc2nnc(CNC(=O)c3ccccc3)o2)c1C | 6.68%
O=C(Nc1ccc(F)cc1)c1oc2ccccc2c1NC(=O)C12CC3CC(CC(C3)C1)C2 | -2.02%
COc1ccc(CCNC(=O)c2ccc3c(c2)N(Cc2c(F)cccc2Cl)C(=O)CS3)cc1OC | -16.7%
O=C(Nc1cc(Cl)cc(Cl)c1)c1ccc(F)c(S(=O)(=O)N2CCc3ccccc32)c1 | 27.9%

SMILES | inhibition
Cc1nn2c(-c3cccc(NC(=O)c4ccccc4)c3)nnc2c2ccccc12 | 0.158%
COc1ccc(CNC(=O)c2ccc(N3CCCC3)c(NC(=O)NCc3ccc(C)cc3)c2)cc1 | 13.4%
Cc1c(NC(=S)NC(=O)CCc2ccccc2)c(=O)n(-c2ccccc2)n1C | active: 40.2%
CCc1cccc(NC(=O)Nc2csc3c2CCCC3)c1 | -4.92%
O=C(CN1C(=O)CCc2cc(S(=O)(=O)N3CCOCC3)ccc21)NCc1ccc(F)cc1 | -5.03%
O=C(COc1ccccc1F)Nc1ccc(-c2nc3ccccc3s2)cc1 | -16%
Cc1ccc(CNC(=O)c2ccc3c(c2)nc(C)n3-c2cc(C)cc(C)c2)cc1 | -6.68%
COc1cccc(NC(=O)CNC(=O)Cn2c(C)cc3ccccc3c2=O)c1 | -9.7%
Cc1ccc(N(CC(=O)NCCc2ccccc2)S(=O)(=O)N(C)C)cc1 | -9.92%
CC(C(=O)N1CCc2ccccc21)N(C)CC(=O)Nc1cccc(F)c1 (centres undefined) | active: 38.9%
N#Cc1ccccc1NC(=O)Cn1cnc2onc(-c3cccc(F)c3)c2c1=O | 2.74%
CCCCOc1ccc(C(=O)Nc2ccc(-c3nc4ccccc4s3)cc2C)cc1 | -15.5%
COc1cc(C)ccc1OCCSc1nc2ccc(NC(=O)c3ccc(F)cc3)cc2s1 | 9.43%
CCC1CCCCN1CCCNC(=O)c1cc2c(Cl)nc3ccccc3c2s1 (centres undefined) | -5.56%
Cc1ccc(C)n1-c1nnc(N2CCCC(C(=O)Nc3ccc(C(C)C)cc3)C2)s1 (centres undefined) | -6.51%
COC(=O)c1ccccc1NC(=O)Cn1c(=O)n(Cc2ccc(C(=O)NCc3ccc4c(c3)OCO4)cc2)c(=O)c2ccccc21 | -19.7%
CCOC(=O)c1c(C)oc2ncnc(Nc3ccc(OCC)cc3)c12 | -13%
Cc1ccc(C)c(N2C(=O)N(Cc3cc(=O)n4ccccc4n3)c3ccccc3S2(=O)=O)c1 | 4.49%
COc1cccc(Oc2nc(-c3ccccc3O)nc3ccccc23)c1 | active: 43.1%
